Measured values as given in the supplement of paper PMC3334620.
Whole data set: some 33,000 sequences, median “E-score (-0.5 to 0.5)” near -0.054, cut for the highest 2% near 0.39. Some of the results follow.

molecular target: Ylr278c (UniProt Q05854); assay: PBM E-score (8-mer binding enrichment) (E-score (-0.5 to 0.5)); higher = stronger / more preferred TF binding; most listed sequences are background and not binding sites; conditions: protein concentration: 200 nM; construct: GST-DNA-binding domain
In short: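 Detection of bound protein used fluorescent anti-GST, with scans normalised by masliner. The proteins were GST-tagged yeast transcription factors applied at about 100-200 nM to universal all-10-mer Agilent arrays made double-stranded by primer extension. Each ungapped eight-base word, pooled with its reverse complement, was scored with an E-score from the Universal PBM Analysis Suite.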

| Sequence | PBM E-score |
| --- | --- |
| CAAGGCAG | -0.138 |
| AGGCGTGA | -0.279 |
| ATGCAGGC | -0.132 |
| CGATCCAC | -0.0458 |
| AAAGAGGC | -0.239 |
| ACTGACAC | -0.0424 |
| AAGGGAAT | -0.149 |
| ATTCCACC | 0.232 |
| GAGCCGAA | 0.204 |
| GATAAGCC | 0.00744 |
| CCGCTCCA | 0.064 |
| ACCCACCG | 0.127 |
| GTAATCAC | 0.00979 |
| AGCGCACA | -0.0352 |
| CACGCGTG | 0.115 |
| CCGATCAG | 0.272 |
| TACCCAGA | -0.202 |
| CGTAGTTA | -0.0635 |
| ATCGGGAA | 0.323 |
| CCCCGTTC | 0.129 |
| AACCGTAC | -0.252 |
| ACGTTAAT | 0.00772 |
| CACCGAAC | 0.102 |
| ATTCCTGG | -0.0751 |
| GCGGCCAA | 0.13 |

| Sequence | PBM E-score |
| --- | --- |
| GAAGGGGA | -0.102 |
| ATTACTAG | -0.0588 |
| ACATGGGA | 0.0284 |
| GGCTTGTA | -0.309 |
| CCCGTAAA | 0.0929 |
| AGGCTCCA | -0.133 |
| CATATTAG | -0.1 |
| GACCGGTC | 0.397 |
| GTATGTAA | -0.0676 |
| GACCTTCC | 0.0466 |
| CACAATTA | -0.18 |
| ACACGGAC | 0.267 |
| GTCGATTA | -0.157 |
| TCACGTAA | -0.381 |
| CGGCCAAA | 0.195 |
| ATTGTTAA | -0.134 |
| CACCGCTA | 0.0577 |
| CTGTTAAG | -0.407 |
| AACTGTGT | -0.0652 |
| GCTTGACA | -0.0637 |
| AGCAAGCA | -0.339 |
| TCCATGAA | 0.0602 |
| CGAGCAAC | -0.00501 |
| GGTTACCA | 0.108 |
| ACGGCCAT | -0.0475 |

| Sequence | PBM E-score |
| --- | --- |
| GCCCCCGC | 0.226 |
| GACGCTGA | -0.214 |
| GTAGCGGA | 0.299 |
| CGTCGGGA | 0.254 |
| CTGGTCGC | 0.0109 |
| ATTGGCAA | -0.204 |
| ACGCGGAT | 0.23 |
| ATTTCCCG | 0.355 |
| TAGAGGAA | -0.211 |
| ATCACGCA | -0.00752 |
| AAAGCGCT | 0.118 |
| CCTGTTAA | -0.202 |
| ATAGAACA | -0.142 |
| AAAGGTCT | -0.0524 |
| AGAGTGTA | -0.146 |
| CGTCACTA | -0.0571 |
| CCAATCAG | -0.274 |
| AGCGGCAG | 0.0977 |
| CCGTGTTA | 0.0823 |
| ACCTTTAG | -0.0779 |
| ACTAAGGC | 0.00463 |
| ATGTACTA | -0.13 |
| ACTTCAGA | -0.0177 |
| TAGCGCCA | -0.184 |
| CAACTGAG | -0.0875 |

| Sequence | PBM E-score |
| --- | --- |
| GACAACCA | -0.0469 |
| CGGTCAAC | 0.169 |
| AGACGCCG | 0.253 |
| GAAGCCGA | 0.264 |
| TAGGGATA | -0.147 |
| CGGCCCAC | 0.129 |
| GGCATCGA | -0.21 |
| CCCTCCGC | 0.259 |
| AATACACA | -0.152 |
| ATGTGGAA | -0.0383 |
| GGAATAAC | 0.29 |
| CTGGTTAA | -0.0405 |
| CCTCTTAG | 0.0901 |
| TAGTTTGA | -0.0722 |
| CTCGTACA | -0.125 |
| GCTGGGCC | -0.111 |
| CGGGAATC | 0.326 |
| TATTCACA | 0.0657 |
| CACTCGCG | 0.0756 |
| ACCTATGG | -0.193 |
| CTATCCCA | -0.197 |
| GAGAAACC | 0.0551 |
| AGACGAGG | -0.0329 |
| AGTAATTA | -0.0875 |
| CCTCCTTA | -0.261 |

| Sequence | PBM E-score |
| --- | --- |
| ACGTGTGA | -0.252 |
| ATAACGCC | 0.158 |
| ACTGTTCG | -0.00079 |
| ATCGCGTA | -0.0246 |
| TAAACGTA | -0.186 |
| AACTCTTC | -0.204 |
| AACCGGTG | 0.282 |
| CGTGCGAC | -0.0105 |
| TAGGACCA | -0.148 |
| CATCCAAA | -0.208 |
| GGTTCTCA | -0.0382 |
| CACTTCGG | 0.222 |
| AGTGGCAG | -0.114 |
| ATTATATG | -0.0955 |
| CTCAATGA | -0.235 |
| CCCCGTAG | 0.0474 |
| CCTCACGA | -0.28 |
| TGCGAAAA | 0.0627 |
| TAACATTA | -0.134 |
| AGCAAAGC | -0.0959 |
| GTCCGGGA | 0.38 |
| ATAATTCC | 0.27 |
| ACCTACCC | 0.0998 |
| ATCTCACA | -0.236 |
| CCAATATC | 0.0845 |

| Sequence | PBM E-score |
| --- | --- |
| GAAAAGTC | 0.025 |
| AAGAGAGG | -0.138 |
| AAATGTTG | -0.264 |
| TACATGGA | -0.0166 |
| AGAATGCT | -0.17 |
| CCAGCCAC | -0.127 |
| ATTATTGA | -0.101 |
| GAGCCTAC | 0.0364 |
| ATGAAACG | -0.00401 |
| CCCCGTAA | 0.131 |
| AGTAGTTC | 0.138 |
| CAAGCGCC | 0.147 |
| CACAGGAC | -0.0538 |
| AGGGTTGC | -0.258 |
| ACTTTAGG | -0.201 |
| AAATCGAT | -0.214 |
| GTCGGGCA | 0.0838 |
| ACCTAGAG | -0.141 |
| CCTCTCAG | -0.335 |
| GACTCCGC | 0.426 |
| GGCGCTAA | 0.0191 |
| CTTTGCAA | 0.079 |
| ACCGGAAC | 0.428 |
| ACCCGTTG | -0.177 |
| AGACGTTG | -0.155 |

| Sequence | PBM E-score |
| --- | --- |
| ATATGATA | 0.0821 |
| TCAGAGCA | -0.282 |
| GCACGGCA | 0.0246 |
| AAATTCCA | 0.115 |
| GGGAGGTA | -0.0269 |
| ACAACAAC | -0.148 |
| ACTCAAAT | -0.134 |
| GACTTAAC | -0.107 |
| ACGCTGTG | -0.235 |
| AATTAATA | 0.198 |
| ATAATATA | 0.0443 |
| ATCACGTG | -0.0223 |
| CGCTCCAG | 0.0273 |
| GAGTGCGC | 0.178 |
| AGACACCC | -0.232 |
| AATCAAGC | -0.241 |
| CAACTTAC | -0.0926 |
| AGGTGTCG | 0.0347 |
| CTGGCCCA | -0.278 |
| AGCCGCTA | 0.0433 |
| CATCAGGA | 0.105 |
| TCGTGCAA | -0.235 |
| CGCATGAC | -0.0664 |
| CCGGCTTC | 0.335 |
| GAGGGTGC | -0.036 |

| Sequence | PBM E-score |
| --- | --- |
| AAGTTGAT | -0.155 |
| CCTCTCTC | -0.271 |
| ACTGATGC | -0.0244 |
| AGTGTCTG | -0.255 |
| CATAATCA | -0.125 |
| ACCCGGTC | 0.202 |
| ACTTATTC | 0.172 |
| AAGCTTCG | -0.00667 |
| GCAGATCC | 0.0453 |
| CCACATTC | -0.0129 |
| AGGGGGCC | -0.262 |
| CATTAGCA | -0.143 |
| TGACCTAA | -0.116 |
| AGGTGACT | -0.214 |
| CTTTCCGC | 0.332 |
| ATCCTGTG | -0.13 |
| GATAGACA | -0.324 |
| CCAGTCGG | 0.237 |
| ATGGGCGG | 0.192 |
| AATAATTA | 0.081 |
| AAGTATGG | -0.149 |
| ATTAGTAC | -0.0906 |
| CTAAGATC | -0.0526 |
| CCCAATAG | -0.196 |
| AGCGTTTC | -0.0846 |

| Sequence | PBM E-score |
| --- | --- |
| GGTAGGTA | -0.087 |
| GCGTCCGA | 0.292 |
| AGCCTTTG | -0.28 |
| AACGGAAT | 0.379 |
| ACAGCCGA | -0.0138 |
| CGAGCACA | 0.0583 |
| GAATGTAA | 0.133 |
| CGCGCTAA | 0.0872 |
| ATTCCAAC | -0.176 |
| GCCCGGCC | 0.32 |
| AAACATTC | 0.0303 |
| GGCGGATA | 0.293 |
| AGATTAGG | -0.0834 |
| GCCAACCA | 0.00869 |
| CGTGCGTA | -0.0456 |
| AGCCGGAA | 0.43 |
| ACGTAGCA | -0.203 |
| AAGGTTAA | -0.192 |
| CGACGACC | 0.248 |
